Some of the results follow.
Legend:
HSkMC = human skeletal muscle cells; assay: cytotoxicity call (relative viability < 0.9); conditions: 10 µM
HepG2 = assay: cytotoxicity call (relative viability < 0.9); conditions: 10 µM
S. aureus RN4220 = assay: growth inhibition call (relative growth <= 0.2); conditions: 50 µM

| Structure (SMILES) | cytotoxicity call (HSkMC) | cytotoxicity call (HepG2) | growth inhibition call (S. aureus RN4220) |
| --- | --- | --- | --- |
| C[C@@H]1CN([C@H](C)CO)C(=O)c2cc(NS(=O)(=O)c3ccc(F)cc3)ccc2O[C@H]1CN(C)S(=O)(=O)c1cccs1 | inactive | inactive | inactive |
| CO[C@H](CN(C)S(=O)(=O)c1ccc(C)cc1)[C@H](C)CN([C@@H](C)CO)S(=O)(=O)c1cccc(Cl)c1 | inactive | inactive | inactive |
| O/N=C/c1ccc2ccccc2c1 | inactive | inactive | inactive |
| C[C@@H]1CN([C@H](C)CO)C(=O)c2cccc(NC(=O)C3CC3)c2O[C@@H]1CN(C)Cc1ccc2c(c1)OCO2 | inactive | inactive | inactive |
| C[C@@H]1CN([C@H](C)CO)C(=O)Cc2cc(NC(=O)Cn3cnnn3)ccc2O[C@@H]1CN(C)S(=O)(=O)c1ccc(F)cc1 | inactive | inactive | inactive |
| CC1=CC(=O)c2ccccc2C1=O | inactive | active | active |
| CCCCOC(=O)CCCCCCC(=O)OCCCC | inactive | inactive | inactive |
| CCCN(C)C[C@H]1OCCCC[C@@H](C)Oc2ccc(NS(=O)(=O)c3cn(C)cn3)cc2C(=O)N([C@H](C)CO)C[C@@H]1C | inactive | inactive | inactive |
| C[C@@H]1CN([C@@H](C)CO)C(=O)Cc2cc(NC(=O)C3CCCCC3)ccc2O[C@H]1CN(C)S(=O)(=O)c1cn(C)cn1 | inactive | inactive | inactive |
| CN1CCN(C(=O)C[C@H]2CC[C@@H]3[C@H](COC[C@@H](O)CN3C(=O)C3CCCC3)O2)CC1 | inactive | inactive | inactive |
| C[C@H](CO)N1C[C@H](C)[C@H](CN(C)S(=O)(=O)c2ccc(F)cc2)Oc2ccc(NS(=O)(=O)c3ccc(F)cc3)cc2C1=O | inactive | inactive | inactive |
| C[C@H]1CN([C@@H](C)CO)C(=O)c2cccc(NC(=O)Nc3ccc(F)cc3)c2O[C@@H]1CN(C)Cc1ccc(C(=O)Nc2ccccc2N)cc1 | inactive | inactive | inactive |
| C[C@H](CO)N1C[C@H](C)[C@@H](CN(C)S(=O)(=O)c2cccc(F)c2)Oc2ncc(Br)cc2C1=O | inactive | inactive | inactive |
| COc1ccc(CN(C)C[C@H]2OCCCC[C@@H](C)Oc3ccc(NC(=O)Nc4ccc(F)cc4)cc3C(=O)N([C@H](C)CO)C[C@H]2C)cc1 | active | active | inactive |
| CCc1nc2ccc(C(=O)Nc3cc(-c4ccccc4)ccc3OC)cn2c1N(C)C(=O)c1cccc(OC)c1 | inactive | inactive | inactive |
| CO[C@@H]1CN(C)C(=O)c2cc(NC(=O)C3CC3)ccc2OC[C@H](C)N(C(=O)C2CCOCC2)C[C@@H]1C | inactive | inactive | inactive |
| C[C@@H]1CN([C@H](C)CO)C(=O)c2cc(NS(=O)(=O)c3cccs3)ccc2O[C@@H]1CN(C)S(=O)(=O)c1cn(C)cn1 | inactive | inactive | inactive |
| C[C@@H]1CN([C@@H](C)CO)C(=O)Cc2cc(NC(=O)Nc3ccc4c(c3)OCO4)ccc2O[C@@H]1CN(C)Cc1ccc(Oc2ccccc2)cc1 | inactive | active | inactive |
| CC(S)C(=O)NCC(=O)O (centres undefined) | inactive | inactive | inactive |
| NC[C@H]1OB(O)c2c(OCCO)ccc(Cl)c21 | inactive | inactive | inactive |
| CO[C@@H]1CN(C)C(=O)c2ccc(NC(=O)CC(F)(F)F)cc2OC[C@H](C)N(S(=O)(=O)c2cn(C)cn2)C[C@H]1C | inactive | inactive | inactive |
| O=C(C[C@H]1C[C@H]2c3cc(NC(=O)NC4CCCC4)ccc3O[C@H]2[C@H](CO)O1)NCCN1CCCCC1 | inactive | inactive | inactive |
| C[C@@H]1CN([C@H](C)CO)C(=O)c2cc(NC(=O)Cc3ccccc3)ccc2O[C@H]1CN(C)C(=O)Nc1cccc2ccccc12 | inactive | inactive | inactive |
| OC1OC(c2ccc(Cl)c(Cc3ccc(OC4CCOC4)cc3)c2)C(O)C(O)C1O (centres undefined) | inactive | inactive | inactive |
| O=C(C[C@@H]1CC[C@H]2[C@@H](COC[C@H](O)CN2C(=O)c2cccnc2)O1)NCC1CC1 | inactive | inactive | inactive |
| C[C@H]1CCCCO[C@@H](CN(C)C(=O)c2ccncc2)[C@@H](C)CN([C@@H](C)CO)C(=O)c2cc(NS(=O)(=O)c3cn(C)cn3)ccc2O1 | inactive | inactive | inactive |
| C[C@@H]1CN([C@@H](C)CO)C(=O)Cc2cc(NC(=O)CCN3CCOCC3)ccc2O[C@H]1CN(C)Cc1ccc(C(=O)Nc2ccccc2N)cc1 | inactive | inactive | inactive |
| COc1ccc(S(=O)(=O)N(C)C[C@H]2Oc3ncc(-c4ccncc4)cc3C(=O)N([C@H](C)CO)C[C@@H]2C)cc1 | inactive | inactive | inactive |

Source: the antibiotic and cytotoxicity screens of Wong et al. (2023)
